Some of the results follow.
B1: PhoQ; a variant is named by its letters at X, in order, P23837 (parent)
chain: MKKLLRLFFPLSLRVRFLLATAAVVLVLSLAYGMVALIGYSVSFDKTTFRLLRGESNLFYTLAKWENNKLHVELPENIDKQSPTMTLIYDENGQLLWAQRDVPWLMKMIQPDWLKSNGFHEIEADVNDTSLLLSGDHSIQQQLQEVREDDDDAEMTHSVAVNVYPATSRMPKLTIVVVDTIPVELKSSYMVWSWFIYVLSANLLLVIPLLWVAAWWSLRPIEALAKEVRELEEHNRELLNPATTRELTSLVRNLNRLLKSERERYDKYRTTLTDLTHSLKTPLXXLQXXLRSLRSEKMSVSDAEPVMLEQISRISQQIGYYLHRASMRGGTLLSRELHPVAPLLDNLTSALNKVYQRKGVNISLDISPEISFVGEQNDFVEVMGNVLDNACKYCLEFVEISARQTDEHLYIVVEDDGPGIPLSKREVIFDRGQRVDTLRPGQGVGLAVAREITEQYEGKIVAGESMLGGARMEVIFGRQHSAPKDE

Variants of: B1
Assay: enrichment ratio after two sorts for PhoP signalling (ratio (wild type AVST 3.29)); higher = more functional
Details: with PhoP (E. coli)

Row | Variant | enrichment ratio
1 | SAHH | ≤ 0.25
2 | TDPC | ≤ 0.25
3 | AHSR | ≤ 0.25
4 | KLNW | ≤ 0.25
5 | HSFT | ≤ 0.25
6 | INWF | ≤ 0.25
7 | SWLR | ≤ 0.25
8 | GNPK | ≤ 0.25
9 | LWRI | ≤ 0.25
10 | TRMM | 9.22
11 | YICI | 1.09
12 | KMIS | ≤ 0.25
13 | DIVV | ≤ 0.25
14 | PCDM | ≤ 0.25
15 | DWEC | ≤ 0.25
16 | RTNA | ≤ 0.25
17 | SCPA | ≤ 0.25
18 | HWGD | ≤ 0.25
19 | WIHS | ≤ 0.25
20 | HCSR | ≤ 0.25
21 | NIMG | ≤ 0.25

Row | Variant | enrichment ratio
22 | DAHY | ≤ 0.25
23 | WDRA | ≤ 0.25
24 | MNKV | ≤ 0.25
25 | VPLQ | ≤ 0.25
26 | DYHM | ≤ 0.25
27 | NGRR | ≤ 0.25
28 | YWCK | ≤ 0.25
29 | VWWC | ≤ 0.25
30 | LEFH | ≤ 0.25
31 | LAWR | ≤ 0.25
32 | VTWI | ≤ 0.25
33 | RQSD | ≤ 0.25
34 | VTIV | ≤ 0.25
35 | MHEK | ≤ 0.25
36 | PVGA | ≤ 0.25
37 | KHGF | ≤ 0.25
38 | EQIR | ≤ 0.25
39 | RGKW | ≤ 0.25
40 | HDPG | ≤ 0.25
41 | EILS | ≤ 0.25
42 | GDDG | ≤ 0.25

Row | Variant | enrichment ratio
43 | TGNT | 15.8
44 | GWLM | ≤ 0.25
45 | KLGD | ≤ 0.25
46 | RVCM | ≤ 0.25
47 | PKFT | ≤ 0.25
48 | MYVK | ≤ 0.25
49 | FYGV | ≤ 0.25
50 | IAPL | 0.723
51 | NDDL | ≤ 0.25
52 | QQDW | ≤ 0.25
53 | VYYK | ≤ 0.25
54 | NEMR | ≤ 0.25
55 | AQGP | ≤ 0.25
56 | SVVL | 0.885
57 | RRCP | ≤ 0.25
58 | FDTS | ≤ 0.25
59 | LWCR | ≤ 0.25
60 | WECH | ≤ 0.25
61 | TYRD | ≤ 0.25
62 | FLSL | ≤ 0.25
63 | ATAN | 29.1

Row | Variant | enrichment ratio
64 | LDQK | ≤ 0.25
65 | AYLR | ≤ 0.25
66 | KIQG | ≤ 0.25
67 | FKHI | ≤ 0.25
68 | NHNN | ≤ 0.25
69 | VMCY | ≤ 0.25
70 | FYEA | ≤ 0.25
71 | NNII | ≤ 0.25
72 | DLFN | ≤ 0.25
73 | GQIV | 0.651
74 | EMSY | ≤ 0.25
75 | TFMF | ≤ 0.25
76 | NIFR | ≤ 0.25
77 | RTYW | ≤ 0.25
78 | YFMI | ≤ 0.25
79 | AAIA | ≤ 0.25
80 | KMGA | ≤ 0.25
81 | AQHF | ≤ 0.25
82 | WFST | ≤ 0.25
83 | QNVA | ≤ 0.25
84 | GYKK | ≤ 0.25

From a collection of fitness landscapes (doi:10.1126/science.1257360)
